# In PubChem BioAssay (Tox21):
# Where “and” joins values, the source holds several entries; their conditions need not be identical. Equal values may be shown once. The shares of active, inactive and inconclusive entries below differ from those in the screen. Potencies of inconclusive entries are doubtful fits and often do not repeat. A structure can be active in one record and inactive in another. Calls of active or inactive are those of the source. Unless noted, the call rests on the fitted dose curve; in most records, active means well fitted curve in the direction sought with a large enough effect in the repeat runs; inconclusive means weak or mixed curves; inactive means no such curve, though single readings can be large; an effect the other way counts as inactive or inconclusive.
# Key:
# [1] = qHTS assay for identifying genotoxic compounds that show differential cytotoxicity against isogenic chicken DT40 cell lines with known DNA damage response pathways - Rev3 mutant cell line (AID 743014); settings: chicken DT40 Rev3-/- viability, CellTiter-Glo, 40 h; activity, negative = cytotoxicity: at 68.4 µM (top of the series) unless noted; further: nearly all actives have a fitted effect of over 55% in size; on activity, negative = cytotoxicity: on the % scale 0 is the no-effect control and ±100 the full control effect
# [2] = qHTS assay for identifying genotoxic compounds that show differential cytotoxicity against isogenic chicken DT40 cell lines with known DNA damage response pathways - Rad54/Ku70 mutant cell line (AID 743015); settings: DT40 Rad54/Ku70 mutant viability, CellTiter-Glo, 40 h; activity change, negative = cytotoxicity: at 66.8 µM (top of the series) unless noted; further: nearly all actives have a fitted effect of over 60% in size; on activity change, negative = cytotoxicity: on the % scale 0 is the no-effect control and ±100 the full control effect
# [3] = molecular target: Androgen receptor (Homo sapiens) (UniProt P10275); test: qHTS assay to identify small molecule agonists of the androgen receptor (AR) signaling pathway (AID 743036; active means well fitted activation curve with a large enough effect in the signal ratio in the repeat runs, with a control signal flat, not every such curve was filed as active; inconclusive means weak or mixed curves, or effect the other way; inactive means no such curve, though single readings can be large or run the other way; the % refers to the signal ratio); settings: HEK293 AR-UAS-bla GripTite, beta-lactamase FRET ratio, 16 h; activation: at 62.4 µM (top of the series) unless noted
# Chain of UniProt P10275 (P10275 whole entry, looked up): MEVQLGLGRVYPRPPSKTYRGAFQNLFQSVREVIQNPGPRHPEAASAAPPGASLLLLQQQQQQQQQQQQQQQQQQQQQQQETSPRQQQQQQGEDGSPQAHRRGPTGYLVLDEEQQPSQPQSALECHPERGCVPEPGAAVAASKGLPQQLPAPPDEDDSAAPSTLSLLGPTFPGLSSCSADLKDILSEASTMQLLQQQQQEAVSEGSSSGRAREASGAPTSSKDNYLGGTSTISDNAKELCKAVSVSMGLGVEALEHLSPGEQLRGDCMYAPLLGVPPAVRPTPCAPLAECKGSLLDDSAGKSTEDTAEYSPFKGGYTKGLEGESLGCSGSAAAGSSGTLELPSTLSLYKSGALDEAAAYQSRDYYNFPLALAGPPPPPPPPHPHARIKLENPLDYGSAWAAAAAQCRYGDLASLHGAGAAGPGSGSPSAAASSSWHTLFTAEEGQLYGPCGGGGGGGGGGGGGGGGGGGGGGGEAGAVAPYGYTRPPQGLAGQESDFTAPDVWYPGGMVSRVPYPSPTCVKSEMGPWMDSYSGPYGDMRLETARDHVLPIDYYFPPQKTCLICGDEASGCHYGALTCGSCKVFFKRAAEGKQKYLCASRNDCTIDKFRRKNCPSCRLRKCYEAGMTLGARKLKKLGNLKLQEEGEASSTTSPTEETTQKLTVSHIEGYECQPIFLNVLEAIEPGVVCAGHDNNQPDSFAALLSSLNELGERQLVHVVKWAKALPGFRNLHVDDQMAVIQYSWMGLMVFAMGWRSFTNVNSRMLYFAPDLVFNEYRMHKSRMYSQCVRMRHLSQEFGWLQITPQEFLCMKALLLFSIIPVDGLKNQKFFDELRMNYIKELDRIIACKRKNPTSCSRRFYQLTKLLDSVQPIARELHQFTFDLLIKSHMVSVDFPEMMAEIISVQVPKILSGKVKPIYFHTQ
# In short: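 Quantitative HTS of the Tox21 10K library in HEK293 cells bearing a stably integrated UAS-controlled beta-lactamase reporter. Compound exposure lasted 16 h at 37C. Reporter activity was detected by FRET substrate fluorescence after 2 h at room temperature.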
# [4] = molecular target: Androgen receptor (Homo sapiens) (UniProt P10275); test: qHTS assay to identify small molecule antagonists of the androgen receptor (AR) signaling pathway using the MDA cell line (AID 743042; further: nearly all actives have a fitted effect of over 55% in size)
# In short: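 MDA-kb2 breast carcinoma cells carrying MMTV-luciferase (AR/GR responsive) were co-treated with compounds and the agonist R1881 for 16 h at 37C. Inhibition read as ONE-Glo luminescence; CellTiter-Fluor fluorescence measured in parallel for cytotoxicity.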
# [5] = qHTS assay to identify small molecule antagonists of the thyroid receptor (TR) signaling pathway - cell viability counter screen (AID 743064); settings: GH3.TRE-Luc viability, CellTiter-Fluor, 24 h; activity change, negative = cytotoxic: at 70.3 µM (top of the series) unless noted; further: nearly all actives have a fitted effect of over 50% in size; on activity change, negative = cytotoxic: on the % scale 0 is the no-effect control and ±100 the full control effect
# In short: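 Rat GH3 pituitary tumor cells stably expressing two TR response elements driving luciferase were plated, rested 4 h, then dosed with library compounds and T3 (1 nM final). After 23.5 h at 37 °C, CellTiter-Fluor was added for 30 min and fluorescence recorded.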
# [6] = qHTS assay to identify small molecule antagonists of the androgen receptor (AR) signaling pathway - cell viability counter screen (AID 743033; further: nearly all actives have a fitted effect of over 45% in size)
# [7] = qHTS assay to identify small molecule antagonists of the androgen receptor (AR) signaling pathway using the MDA cell line - cell viability counter screen (AID 743041; further: nearly all actives have a fitted effect of over 45% in size; on viability change, negative = cytotoxic: on the % scale 0 is the no-effect control and ±100 the full control effect); settings: MDA-kb2 viability, CellTiter-Fluor, 16 h, cells co-treated with R1881 androgen agonist; viability change, negative = cytotoxic: at 70.3 µM (top of the series) unless noted
# In short: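 Compound exposure lasted 16 h at 37C in MDA-kb2 AR-luc cells stimulated with R1881. Protease-based CellTiter-Fluor reagent was applied for the final 30 min and fluorescence measured.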
# [8] = molecular target: Androgen receptor (Homo sapiens) (UniProt P10275); test: qHTS assay to identify small molecule antagonists of the androgen receptor (AR) signaling pathway (AID 743035; active means well fitted inhibition curve with a large enough effect in the signal ratio in the repeat runs, not every such curve was filed as active; inconclusive means weak or mixed curves, or effect the other way; inactive means no such curve, though single readings can be large or run the other way; the % refers to the signal ratio); settings: HEK293 AR-UAS-bla, R1881-stimulated, beta-lactamase FRET, 16 h; activity change, negative = inhibition: at 58.5 µM (top of the series) unless noted
# In short: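 Antagonist mode: AR-bla HEK293 cells co-treated with test compounds and agonist R1881 for 16 h at 37C, 5% CO2. Beta-lactamase activity read as FRET fluorescence after 2 h room-temperature substrate loading.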
# [9] = molecular target: Androgen receptor (Homo sapiens) (UniProt P10275); test: qHTS assay to identify small molecule agonists of the androgen receptor (AR) signaling pathway using the MDA cell line (AID 743040; further: nearly all actives have a fitted effect of over 20% in size); settings: MDA-kb2 AR-luc cells, MMTV luciferase, 16 h; activity change: at 70.3 µM (top of the series), stronger effect = higher value
# In short: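 Testing was done with the MDA-kb2 AR-luc line, a human breast carcinoma stably transfected with MMTV-luciferase containing AR and GR response elements. Cells were exposed 16 h at 37C before ONE-Glo luminescence detection.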
# [10] = qHTS assay to identify small molecule antagonists of the thyroid receptor (TR) signaling pathway (AID 743065); further: nearly all actives have a fitted effect of over 55% in size
# In short: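 GH3.TRE-Luc rat pituitary cells (two TREs driving luciferase) were dosed with compound, then stimulated with 1 nM T3 (final) for 23.5 h at 37 C. ONE-Glo luminescence was the read-out, with CellTiter-Fluor fluorescence as the cytotoxicity counter-screen.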
# Potency means the concentration at half of the fitted maximal effect; tags describe the fitted curve by direction and shape or compound fluorescence and quenching.
compound,measurement,setting,value
CC(C)(c1ccc(O)cc1)c1ccc(O)cc1,Potency,[1],active: 67.8 µM and active: 50.4 µM
same,Potency,[2],"inconclusive: 67.8 µM [cytotoxic, single point] and active: 49.2 µM"
same,Potency,[3],"inconclusive: 9.77 µM [fluorescent, full curve, poor fit]"
same,Potency,[4],"inconclusive: 67.8 µM [inhibitor, single point]"
same,Potency,[5],"inconclusive: 67.8 µM [cytotoxic, single point] and inconclusive: 11.5 µM"
O=C(Nc1ccc([N+](=O)[O-])cc1Cl)c1cc(Cl)ccc1O,Potency,[1],active: 473 nM and active: 686 nM
same,Potency,[6],active: 1.51 µM and active: 436 nM
COc1ccc(N)c(C)c1,Potency,[1],"inconclusive: 54.2 µM [cytotoxic, partial curve]"
same,Potency,[2],inactive
same,Potency,[7],inactive
same,Potency,[5],"inconclusive: 68.2 µM [rising, single point]"
Cc1ccc(S(=O)(=O)NC(=O)NN2CCCCCC2)cc1,Potency,[1],inactive and active: 68.6 µM
same,Potency,[2],inactive
same,Potency,[5],inactive
COC(=O)c1c(Cl)c(Cl)c(C(=O)OC)c(Cl)c1Cl,Potency,[1],inconclusive: 24.3 µM [cytotoxic]
same,Potency,[2],inconclusive: 36.4 µM [cytotoxic]
same,Potency,[7],"inconclusive: 68.6 µM [rising, partial curve, poor fit]"
same,Potency,[5],inconclusive: 45 µM
O=C(c1ccc(O)cc1O)c1ccc(O)cc1O,Potency,[1],"inconclusive: 68.7 µM [cytotoxic, single point] and inconclusive: 54.5 µM [cytotoxic, partial curve, poor fit]"
same,Potency,[2],"inconclusive: 77 µM [cytotoxic, single point] and inconclusive: 68.6 µM [cytotoxic, single point]"
same,Potency,[8],"inconclusive: 6.17 µM [rising, full curve] and inconclusive: 7.76 µM [rising, full curve]"
same,Potency,[9],"inconclusive: 54.5 µM [activator, partial curve, poor fit]"
same,Potency,[4],"inconclusive: 77 µM [inhibitor, single point] and inconclusive: 7.7 nM [inhibitor, full curve, poor fit]"
same,Potency,[5],"inconclusive: 61.1 µM [cytotoxic, single point]"
c1ccc2c(c1)CCc1ccccc1N2,Potency,[1],"inconclusive: 43.5 µM [cytotoxic, partial curve]"
same,Potency,[2],"inconclusive: 68.9 µM [cytotoxic, single point]"
same,Potency,[6],"inconclusive: 43.9 µM [cytotoxic, partial curve]"
same,Potency,[7],"inconclusive: 68.9 µM [cytotoxic, single point]"
same,Potency,[10],inactive
C[C@]12C=CC(=O)C=C1CC[C@@H]1[C@@H]2[C@@H](O)C[C@@]2(C)[C@H]1CC[C@]2(O)C(=O)CO,Potency,[1],"inconclusive: 33.9 µM [cytotoxic, partial curve] and inconclusive: 54.5 µM [cytotoxic, partial curve, poor fit]"
same,Potency,[2],"inconclusive: 23.7 µM [cytotoxic, partial curve] and inconclusive: 67.6 µM [cytotoxic, single point] and inconclusive: 13.7 µM [cytotoxic, full curve]"
same,Potency,[7],inactive
O=C1CN(/N=C/c2ccc([N+](=O)[O-])o2)C(=O)N1,Potency,[1],"inconclusive: 33.5 µM [cytotoxic, single point]"
same,Potency,[2],"inconclusive: 33.5 µM [cytotoxic, single point] and inconclusive: 68.6 µM [cytotoxic, single point]"
same,Potency,[6],"inconclusive: 26.8 µM [cytotoxic, single point] and inconclusive: 13.8 µM [cytotoxic, full curve] and inconclusive: 38.9 µM [cytotoxic, partial curve]"
same,Potency,[5],"inconclusive: 3.76 µM [cytotoxic, full curve, poor fit]"
Nc1cc(Cl)c([N+](=O)[O-])cc1O,Potency,[1],"inconclusive: 68 µM [cytotoxic, partial curve, poor fit]"
same,Potency,[2],"inconclusive: 68 µM [cytotoxic, single point]"
same,Potency,[7],"inconclusive: 24.1 µM [cytotoxic, partial curve]"
same,Potency,[5],active: 60.6 µM
same,Potency,[10],inactive
O=C(O)c1ccc([N+](=O)[O-])cc1,Potency,[1],inactive
same,Potency,[6],inactive
O=C1CCC/C=C\CCCCCCCCCC1,Potency,[1],"inconclusive: 61.1 µM [cytotoxic, partial curve, poor fit]"
same,Potency,[2],inconclusive: 77 µM [cytotoxic]
same,Potency,[6],"inconclusive: 54.9 µM [cytotoxic, single point]"
same,Potency,[5],"inconclusive: 68.6 µM [cytotoxic, single point]"
same,Potency,[10],"inconclusive: 68.6 µM [inhibitor, single point]"
CC(C)(C)CC(C)(C)c1ccccc1O,Potency,[1],active: 24.5 µM
same,Potency,[6],active: 39.1 µM
Cc1cc(OCCOCC[N+](C)(C)Cc2ccccc2)ccc1C(C)(C)CC(C)(C)C,Potency,[1],active: 1.19 µM and active: 682 nM
same,Potency,[6],active: 16.9 µM and active: 15.4 µM
same,Potency,[8],"inconclusive: 30.1 µM [falling, single point] and inconclusive: 54.6 µM [falling, single point]"
same,Potency,[3],"inconclusive: 26.8 µM [cytotoxic, single point] and inconclusive: 54.6 µM [cytotoxic, single point]"
same,Potency,[7],"inconclusive: 33.5 µM [cytotoxic, single point] and active: 24.2 µM"
same,Potency,[4],active: 18.8 µM and active: 12.1 µM
same,Potency,[5],active: 10.6 µM and active: 12.1 µM
COc1ccccc1OCCNCC(O)COc1cccc2[nH]c3ccccc3c12 (configuration not stated),Potency,[1],active: 29.8 µM
same,Potency,[6],inconclusive: 16.9 µM [cytotoxic]
same,Potency,[7],"inconclusive: 31.2 µM [cytotoxic, single point]"
same,Potency,[4],"inconclusive: 33.5 µM [inhibitor, single point]"
same,Potency,[5],active: 29.8 µM
CC(C)(c1cc(Br)c(O)c(Br)c1)c1cc(Br)c(O)c(Br)c1,Potency,[1],inconclusive: 68.3 µM [cytotoxic]
same,Potency,[6],"inconclusive: 48.8 µM [cytotoxic, partial curve, poor fit] and inconclusive: 36.8 µM [cytotoxic, partial curve]"
same,Potency,[7],inconclusive: 64.9 µM [cytotoxic]
same,Potency,[5],"active: 27.2 µM and inconclusive: 68.4 µM [cytotoxic, single point] and inconclusive: 64.9 µM [cytotoxic, single point]"
CC[C@H](C)C(=O)O[C@H]1C[C@@H](C)C=C2C=C[C@H](C)[C@H](CC[C@@H]3C[C@@H](O)CC(=O)O3)[C@H]21,Potency,[1],active: 8.4 nM and active: 391 nM and active: 3.8 nM
same,Potency,[6],"inconclusive: 4.77 µM [cytotoxic, partial curve, poor fit]"
same,Potency,[5],inconclusive: 33.5 µM [cytotoxic]
same,Potency,[10],inconclusive: 33.5 µM [inhibitor]
CN(C)CCOc1ccc(/C(=C(/CCCl)c2ccccc2)c2ccccc2)cc1,Potency,[1],active: 2.66 µM and active: 1.44 µM
same,Potency,[6],"inconclusive: 26.8 µM [cytotoxic, single point] and active: 16.3 µM"
same,Potency,[7],"inconclusive: 57.2 µM [cytotoxic, single point]"
same,Potency,[4],active: 57.2 µM
same,Potency,[5],active: 10.6 µM and active: 10.2 µM
OC1(c2ccc(Cl)c(C(F)(F)F)c2)CCN(CCCC(c2ccc(F)cc2)c2ccc(F)cc2)CC1,Potency,[1],active: 7.5 µM
same,Potency,[6],active: 19 µM
same,Potency,[5],active: 5.96 µM
CCCCCCCC/C=C/CCCCCCCC1=NCCN1CCO,Potency,[1],active: 13.7 µM
same,Potency,[6],"inconclusive: 38.9 µM [cytotoxic, partial curve]"
same,Potency,[8],active: 49 µM
same,Potency,[3],inconclusive: 54.9 µM
same,Potency,[10],active: 21.7 µM
CCc1cc(SCc2sc(-c3ccc(C(F)(F)F)cc3)nc2CN2CCN(c3ccc(OC)cc3)CC2)ccc1OCC(=O)O,Potency,[1],active: 61.1 µM
same,Potency,[6],active: 5.49 µM
C=CC(=O)OCC(CO)(COCC(COC(=O)C=C)(COC(=O)C=C)COC(=O)C=C)COC(=O)C=C,Potency,[1],active: 0.428 µM
same,Potency,[6],active: 3.84 µM
same,Potency,[8],active: 1.93 µM
same,Potency,[3],"inconclusive: 60.9 µM [falling, single point]"
same,Potency,[7],active: 1.2 µM
same,Potency,[5],active: 1.52 µM
O=C1OC(=O)c2cc(-c3ccc4c(c3)C(=O)OC4=O)ccc21,Potency,[1],active: 54.5 µM
same,Potency,[6],inconclusive: 54.9 µM [cytotoxic]
same,Potency,[5],inactive
Cc1c(N(C)C)c(=O)n(-c2ccccc2)n1C,Potency,[1],"inconclusive: 78.3 µM [cytotoxic, single point]"
same,Potency,[6],"inconclusive: 62.7 µM [cytotoxic, partial curve, poor fit]"
same,Potency,[5],"inconclusive: 2.73 µM [rising, single point]"
CN(C)CCC=C1c2ccccc2CCc2ccccc21,Potency,[1],"inconclusive: 68.6 µM [cytotoxic, single point]"
same,Potency,[6],"inconclusive: 1.74 µM [cytotoxic, full curve] and inconclusive: 17.4 µM [cytotoxic, full curve]"
same,Potency,[7],"inconclusive: 33.5 µM [cytotoxic, partial curve, poor fit] and inconclusive: 68.6 µM [cytotoxic]"
same,"viability change, negative = cytotoxic",[7],inconclusive: -40% [cytotoxic]
same,Potency,[5],active: 23.7 µM and active: 5.45 µM and active: 24.3 µM
